#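 1) Cells in 96-well plates. 2) Compound, 48 h, 5 concentrations. 3) Linear interpolation between surrounding doses. 4) Unreached endpoint = highest concentration. The concentration for 50% growth inhibition is given as GI50. TGI is the concentration that stops growth completely.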
# Test system: NCI-H322M lung
# Assay: NCI-60 cell line screen, 48 h
Compound,GI50 [µM],TGI [µM]
CC(C)C[C@H]1C(=O)O[C@H](C(C)C)C(=O)N(C)[C@@H](C(C)C)C(=O)O[C@H](C(C)C)C(=O)N(C)[C@@H](C(C)C)C(=O)O[C@H](C(C)C)C(=O)N1C,2.82,> 10
OC1CCN(CCCOc2c3ccc(Cl)cc3nc3c2oc2ccc(Cl)cc23)CC1,1.16,15.8
Cc1ccc(-c2nc(C(Cl)Cl)nc3cc(-c4ccccc4)nn23)cc1,9.14,37.2
